The source gives no read counts; variants with many changes may rest on few reads.
B1: CPEB3 Ribozyme (parent)
chain: UAACAGGGGGCCACAGCAGAAGCGUUCACGUCGCAGCCCCUGUCAGAUUCUGGUGAAUCUGCGAAUUCUGCUGUAUAUCUC

Variants of: B1
Assay: self-cleavage, relative activity (ratio to wild type); higher = more cleavage; in vitro, sequencing
Summary of the method: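 CPEB3 self-cleaving ribozyme mutant libraries were made by rounds of error-prone PCR, barcoded, and transcribed in vitro with T7 RNA polymerase for 5 hours at 37°C. Cleavage occurred during transcription and a 15 min DNase I step before EDTA stop. RNAs were reverse transcribed with template switching and Illumina-sequenced, with DNA sequencing mapping barcodes to variants. Relative activity is the variant's cleaved/total read fraction divided by wild type's (minimum 5 reads), averaged across three batches.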

Variant	self-cleavage
U43C A45G G46C U48A	0.17
U43C U54C U69C	0.21
U43C A45G U60A	0.52
U41A U54C A56U	0.09
U41A U49C U60C	0.12
U43G A64G U72C U76A	0.15
U41C C50U U60A U80C	0.47
A45G A64U U66A	0.16
U41A U54C U78C	0.18
U41A C59A A64U U67A U69C A75G	0.04
U41C U43A U58C	0.37
U41C G55C U58A A64U U69A	0.28
A45G U69C U72C	0.35
A45U A56G A64G U72C	0.33
A45G U51C U72A	0.44
U43A U54C A75U U76C	1.23
U41C U48C A56G U72A U80C	0.73
U41A U51C A64G U67A	0.22
U41C A47G U54C U72G U76C	0.87
A45U A47G A56U U69C	0.15
U43C A47G U54C A57G	0.38
U41C A45U G73A	0.74
U43C U51C U67A	0.16
U41C A45G A47G U49A	0.41

Variant	self-cleavage
A45G G53A U58A	0.41
U43A A56G A57G A75G	0.35
U43A U58C A64G	0.31
U41A U51C U80C	0.41
A45C G52A A64U A75G	0.1
A45G U58A U69C	0.36
G42A A45G U80C	0.12
U41C U49C U54A A64C	0.16
A45G A47G G52C U67C	0.16
A45G U49C A64G	0.22
U43C A45G A57G U58C	0.16
U41C U58C U72C	1.06
U41C U43C A57U	0.15
U43C A45U A57U U58C	0.09
U43C U54G A57G C59U	0.17
G42A A56U A65U U78C	0.04
U43C A47G A64G U67A	0.11
A45G A47G A56U U74C	0.12
A45G U49A A56U U60A	0.71
G42C U43A A77G	0.27
U43C U58A U74C	0.17
A45G U60A C62U	0.13
U43A U54A U60C	0.7
U43C U48C A56G U80C	0.18

Variant	self-cleavage
U43C A45C A57G A64U	0.05
A45U A47U U49C	0.09
U41C A64U U76C	0.25
G42A A45G G46A	0.22
U43G A64G U72C U74C A75G	0.19
U41C U48C U66C	0.31
U41C U43C U49C A57U U60A A65G	0.07
G42A A47G U51A G52U U78C	0.07
U41C A47G U80C	0.96
G42U A47G U48A U67C U69C A75U U76C	0.04
U41A G46C U54A U72C	0.24
A45C U54C U66A	0.24
U41C A47G U51G U58A	0.25
U43A U66A U69A	0.35
U43C U74C A75G	0.9
U43C A45U A47G U80A	0.23
U43G U60C A75C U76C	0.17
U41A G53A A64U A77G	0.13
A45G G52U U78C	0.98
G42A A47C U54C U67C U69A	0.52
U41C U51A U54A A64U U67C	0.26
A45C A57G A64G A75G	0.09
U41A U49C A56G U69C U72A U80A	0.08
U41C U54G C68U	0.66

Variant	self-cleavage
U41C U43A A45U G52A U60C	0.28
U41G A47G U54C U67C	0.12
U43A U60C U66C U78G	0.11
A45G U58G C62U	0.26
A45G A57G U58G	0.42
U41A C62G U69C	0.13
A45G U49C U66C U74C	0.11
U41C U49C A65G U72C	0.19
A45G U51C U54C A65G U69A A75G	0.22
U43C A45U G73A A75C U80C	0.71
U41C U51C A65G	0.51
U41A C59A U60A	0.11
A45C U48A U67C	0.1
U43A A65G U78G	1.01
A45G U58G U69A	0.21
A45C A77G U78C	0.3
U43A U51C U54A	1.16
U43G U48C U51A U58C	0.11
U41A U60A A77U	0.35
U43A U48C G55U U72C	0.5
U41G U49C G55C U58C A64G	0.3
U41A U49A G63U U80C	0.1
U41A U60A U78C	0.08
U41C U66C U72C	0.44

Variant	self-cleavage
U43C A45G U72C	0.54
U43A A47G A56U U74C	0.66
A45G U67G U78C	0.16
U41C A65U C68A	0.25
U41G U51A A64U	0.35
U43A U51C U66C	0.54
U43C U60C A64G A77U	0.12
A45U A47G G52A A57U U60C	0.09
U41C U49C C81A	0.37
U43A U48C A64G A65G	0.27
A45G A47U U69A	0.12
U43A A47U U76A	0.64
G42A A47G U54A U60C	0.09
U41C A56G U66C U69A	0.27
A45G A64U U67C	0.25
U41C U51C A64G U80C	0.4
U41C U67A U72C U76C	0.52
U43C G53A C62U	0.52
U41C U49A U69C U72C	0.28
G42U A45U U66A	0.19
A45C C59U A77G	0.08
U41C U49A A57G	0.53
U41C U51C U58C	0.54
A45G A56G G63A U76A	0.56

Variant	self-cleavage
U41C A45G U48C A57G A64G A65G C68A	0.03
U41C A45G A65U	0.19
A45G A56G U76C C81A	0.84
A45G U58C U80C	0.21
U41C G73A U74C	1.21
U43A U54C G63A	1.07
G42A C59A C62U	0.23
U41C U43C A56U U69G	0.12
G42A U60A U72A U80A	0.43
U41C G70U U78C	0.34
A45G U74C U78C	1.15
U43G A47G U72C	0.07
U41A U67C U69A U72C	0.26
U41G U43A A65G U69A	0.04
U41C C50G G61A A65G	0.17
U41C U43A A56G U66A U76A U78C	0.21
U43C A45G U72A U74C U80A	0.62
A45U A47U U58A C68A	0.07
U41A G42A U43C U48A	0.21
A45G U51A C62U	0.61
G42A A47G U58C A65G	0.11
U43C U54C U74C	0.6
U41C A56G C62G U69A	0.29
A45G A56G A57G A64G U76A	0.2

Variant	self-cleavage
A45C U60G U78C	0.94
U41C U51C U69A U76C	0.8
U41C U51A U80A	1.21
U41C U43A U80C	0.71
U43C C44U U80C	0.38
U41C A57G U72C	1.01
U41G U49A A64G	0.23
U41G U49C A65G	0.16
U41C A64G U80C	0.89
U41C A64G U80A	0.92
U41C U43C U72C	0.22
U43A A45G U78C	0.88
U43C U58C A77U	0.19
A45G A47U U49A U51A U67C	0.26
U43A U69A U80C	0.62
U43A A57G U66A	0.38
U41G U43C G52C U54C	0.15
U41C A47U A64G	0.53
A45G U60A U80C	0.6
U41A U43C U51C A56G U80A	0.21
A45G U58C U69C U80C	0.19
U43C U48C U49C	0.04
U43G A56G A57G A64G	0.27
